# According to the supplement of paper PMC8728848:
# This is one part of the list.
# B1: FGFR2-Fc (protein)
# chain: MVNVTDAISSGDDEDDTDGAEDFVSENSNNKRAPYWTNTEKMEKRLHAVPAANTVKFRCPAGGNPMPTMRWLKNGKEFKQEHRIGGYKVRNQHWSLIMESVVPSDKGNYTCVVENEYGSINHTYHLDVVERSPHRPILQAGLPANASTVVGGDVEFVCKVYSDAQPHIQWIKHVEKNGSKYGPDGLPYLKVLKHSGINSSNAEVLALFNVTEADAGEYICKVSNYIGQANQSAWLTVLPKQQAPGREKEITASPDYLETRPLEQKLISEEDLAANDILDYKDDDDKV
# Assays:
# Assay in all cases: glycan array binding signal (z-score within array); higher = stronger binding
# Conditions in all cases: glycan notation: IUPAC condensed, linker removed
# Gal3S6S(b1-4)GlcNAc = target: Gal3S6S(b1-4)GlcNAc
# Method in brief: (§1)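 From the Consortium for Functional Glycomics database, 3228 arrays were curated, keeping only those whose protein sequence was available. Binding is given as a within-array Z-score averaged across arrays sharing a protein sequence and across linkers. Negative Z-scores can be read as non-binding.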
# Gal3S6S(b1-4)GlcNAc6S = target: Gal3S6S(b1-4)GlcNAc6S
# Method in brief: as §1
# Gal4S(b1-4)GlcNAc = target: Gal4S(b1-4)GlcNAc
# Method in brief: as §1
# Gal4S6S(b1-4)GlcNAc = target: Gal4S6S(b1-4)GlcNAc
# Method in brief: as §1
# Gal6P(b1-4)GlcNAc = target: Gal6P(b1-4)GlcNAc
# Method in brief: as §1
# Gal6S(b1-3)GlcNAc = target: Gal6S(b1-3)GlcNAc
# Method in brief: as §1
# Gal6S(b1-3)GlcNAc6S = target: Gal6S(b1-3)GlcNAc6S
# Method in brief: as §1
# Gal6S(b1-4)Glc = target: Gal6S(b1-4)Glc
# Method in brief: as §1
# Gal6S(b1-4)Glc6S = target: Gal6S(b1-4)Glc6S
# Method in brief: as §1
# Gal6S(b1-4)GlcNAc = target: Gal6S(b1-4)GlcNAc
# Method in brief: as §1
# Gal6S(b1-4)GlcNAc6S = target: Gal6S(b1-4)GlcNAc6S
# Method in brief: as §1
# GalNAc(a1-3)Gal = target: GalNAc(a1-3)Gal
# Method in brief: as §1
# GalNAc(a1-3)GalNAc = target: GalNAc(a1-3)GalNAc
# Method in brief: as §1
# [1] = target: GalNAc(a1-3)GalNAc(b1-3)Gal(a1-4)Gal(b1-4)Glc
# Method in brief: as §1
# [2] = target: GalNAc(a1-3)GalNAc(b1-3)Gal(a1-4)Gal(b1-4)GlcNAc
# Method in brief: as §1
# GalNAc(b1-3)Gal = target: GalNAc(b1-3)Gal
# Method in brief: as §1
# [3] = target: GalNAc(b1-3)Gal(a1-4)Gal(b1-4)GlcNAc
# Method in brief: as §1
# [4] = target: GalNAc(b1-3)Gal(a1-4)Gal(b1-4)GlcNAc(b1-3)Gal(b1-4)Glc
# Method in brief: as §1
# [5] = target: GalNAc(b1-3)Gal(a1-6)Gal(b1-4)Glc
# Method in brief: as §1
# GalNAc(b1-3)GalNAc = target: GalNAc(b1-3)GalNAc
# Method in brief: as §1
# GalNAc(b1-3)GlcNAc = target: GalNAc(b1-3)GlcNAc
# Method in brief: as §1
# GalNAc(b1-4)Gal(b1-4)Glc = target: GalNAc(b1-4)Gal(b1-4)Glc
# Method in brief: as §1
# GalNAc(b1-4)GlcNAc = target: GalNAc(b1-4)GlcNAc
# Method in brief: as §1
# [6] = target: GalNAc(b1-4)GlcNAc(b1-2)Man
# Method in brief: as §1
# [7] = target: GalNAc(b1-4)GlcNAc(b1-2)Man(a1-3)[GalNAc(b1-4)GlcNAc(b1-2)Man(a1-6)]Man(b1-4)GlcNAc(b1-4)GlcNAc
# Method in brief: as §1
# [8] = target: GalNAc(b1-4)GlcNAc(b1-3)GalNAc(b1-4)GlcNAc
# Method in brief: as §1
# GalNAc(b1-4)GlcNAc6S = target: GalNAc(b1-4)GlcNAc6S
# Method in brief: as §1
# GalNAc(b1-6)GalNAc = target: GalNAc(b1-6)GalNAc
# Method in brief: as §1
# GalNAc3S(b1-4)GlcNAc = target: GalNAc3S(b1-4)GlcNAc
# Method in brief: as §1
# GalNAc3S(b1-4)GlcNAc3S = target: GalNAc3S(b1-4)GlcNAc3S
# Method in brief: as §1
# [9] = target: GalNAc3S(b1-4)[Fuc(a1-3)]GlcNAc
# Method in brief: as §1
# GalNAc4S6S(b1-4)GlcNAc = target: GalNAc4S6S(b1-4)GlcNAc
# Method in brief: as §1
# GalNAc6S(b1-4)GlcNAc = target: GalNAc6S(b1-4)GlcNAc
# Method in brief: as §1
# Glc(a1-4)Glc = target: Glc(a1-4)Glc
# Method in brief: as §1
# [10] = target: Glc(a1-4)Glc(a1-4)Glc(a1-4)Glc
# Method in brief: as §1
# Glc(a1-6)Glc(a1-6)Glc = target: Glc(a1-6)Glc(a1-6)Glc
# Method in brief: as §1
# [11] = target: Glc(a1-6)Glc(a1-6)Glc(a1-6)Glc
# Method in brief: as §1
# Glc(b1-4)Glc = target: Glc(b1-4)Glc
# Method in brief: as §1
binder,measurement,setting,value
B1,glycan array binding signal (z-score),Gal3S6S(b1-4)GlcNAc,-0.096
same,glycan array binding signal (z-score),Gal3S6S(b1-4)GlcNAc6S,0.72
same,glycan array binding signal (z-score),Gal4S(b1-4)GlcNAc,-0.328
same,glycan array binding signal (z-score),Gal4S6S(b1-4)GlcNAc,0.876
same,glycan array binding signal (z-score),Gal6P(b1-4)GlcNAc,-0.234
same,glycan array binding signal (z-score),Gal6S(b1-3)GlcNAc,0.1
same,glycan array binding signal (z-score),Gal6S(b1-3)GlcNAc6S,0.179
same,glycan array binding signal (z-score),Gal6S(b1-4)Glc,-0.195
same,glycan array binding signal (z-score),Gal6S(b1-4)Glc6S,-0.39
same,glycan array binding signal (z-score),Gal6S(b1-4)GlcNAc,-0.179
same,glycan array binding signal (z-score),Gal6S(b1-4)GlcNAc6S,0.231
same,glycan array binding signal (z-score),GalNAc(a1-3)Gal,-0.191
same,glycan array binding signal (z-score),GalNAc(a1-3)GalNAc,0.149
same,glycan array binding signal (z-score),[1],-0.248
same,glycan array binding signal (z-score),[2],-0.267
same,glycan array binding signal (z-score),GalNAc(b1-3)Gal,0.647
same,glycan array binding signal (z-score),[3],0.144
same,glycan array binding signal (z-score),[4],0.337
same,glycan array binding signal (z-score),[5],-0.126
same,glycan array binding signal (z-score),GalNAc(b1-3)GalNAc,-0.106
same,glycan array binding signal (z-score),GalNAc(b1-3)GlcNAc,-0.683
same,glycan array binding signal (z-score),GalNAc(b1-4)Gal(b1-4)Glc,-0.408
same,glycan array binding signal (z-score),GalNAc(b1-4)GlcNAc,0.087
same,glycan array binding signal (z-score),[6],-0.587
same,glycan array binding signal (z-score),[7],-0.322
same,glycan array binding signal (z-score),[8],-0.178
same,glycan array binding signal (z-score),GalNAc(b1-4)GlcNAc6S,-0.578
same,glycan array binding signal (z-score),GalNAc(b1-6)GalNAc,-0.692
same,glycan array binding signal (z-score),GalNAc3S(b1-4)GlcNAc,-0.098
same,glycan array binding signal (z-score),GalNAc3S(b1-4)GlcNAc3S,0.364
same,glycan array binding signal (z-score),[9],0.669
same,glycan array binding signal (z-score),GalNAc4S6S(b1-4)GlcNAc,0.263
same,glycan array binding signal (z-score),GalNAc6S(b1-4)GlcNAc,-0.061
same,glycan array binding signal (z-score),Glc(a1-4)Glc,-0.334
same,glycan array binding signal (z-score),[10],-0.11
same,glycan array binding signal (z-score),Glc(a1-6)Glc(a1-6)Glc,-0.079
same,glycan array binding signal (z-score),[11],-0.474
same,glycan array binding signal (z-score),Glc(b1-4)Glc,-0.66
